The whole screen tested about 310,000 compounds, of which about 2,200 (0.71%) showed an effect of 50% or more. Effects have a minus sign here. Some of the results follow.
Biological target: human ether-à-go-go-related gene (hERG) potassium channel (human, UniProt Q12809)
Assay: primary screen, population patch clamp on CHO cells stably expressing hERG

Sequence of human ether-à-go-go-related gene (hERG) potassium channel (Q12809 whole entry, looked up): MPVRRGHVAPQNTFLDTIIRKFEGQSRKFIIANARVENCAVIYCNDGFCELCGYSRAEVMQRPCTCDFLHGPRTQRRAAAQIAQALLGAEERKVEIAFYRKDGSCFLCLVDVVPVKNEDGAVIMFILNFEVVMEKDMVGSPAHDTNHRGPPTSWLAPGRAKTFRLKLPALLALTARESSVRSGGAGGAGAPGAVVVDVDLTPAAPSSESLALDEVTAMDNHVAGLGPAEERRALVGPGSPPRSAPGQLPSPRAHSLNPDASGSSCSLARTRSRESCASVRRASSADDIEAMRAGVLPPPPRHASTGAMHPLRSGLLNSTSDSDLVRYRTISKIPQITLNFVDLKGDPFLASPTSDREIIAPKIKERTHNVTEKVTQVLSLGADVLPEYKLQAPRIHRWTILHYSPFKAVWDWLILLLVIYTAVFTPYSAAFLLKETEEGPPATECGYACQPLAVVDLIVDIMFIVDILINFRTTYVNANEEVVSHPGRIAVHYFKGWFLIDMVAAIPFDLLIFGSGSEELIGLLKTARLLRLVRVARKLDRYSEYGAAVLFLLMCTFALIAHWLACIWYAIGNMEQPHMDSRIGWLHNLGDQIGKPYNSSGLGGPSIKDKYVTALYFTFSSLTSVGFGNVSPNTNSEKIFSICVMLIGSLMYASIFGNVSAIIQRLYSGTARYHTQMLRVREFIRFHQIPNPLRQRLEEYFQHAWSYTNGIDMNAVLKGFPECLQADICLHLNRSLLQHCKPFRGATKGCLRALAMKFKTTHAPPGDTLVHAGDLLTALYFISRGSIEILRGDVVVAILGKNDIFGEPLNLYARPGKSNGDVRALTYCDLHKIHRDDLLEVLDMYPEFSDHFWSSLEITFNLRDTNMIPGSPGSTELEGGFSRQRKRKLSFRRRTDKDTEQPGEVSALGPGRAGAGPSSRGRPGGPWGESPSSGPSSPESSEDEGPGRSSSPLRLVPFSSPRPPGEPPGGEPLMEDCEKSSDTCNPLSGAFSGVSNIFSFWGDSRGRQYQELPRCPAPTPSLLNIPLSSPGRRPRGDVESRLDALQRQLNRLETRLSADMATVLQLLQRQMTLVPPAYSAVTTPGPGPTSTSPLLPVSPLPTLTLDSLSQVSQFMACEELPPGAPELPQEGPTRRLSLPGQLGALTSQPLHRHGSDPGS

Structure (SMILES)	hERG current change (%, negative = inhibition) at 1uM [%]
CCN(CC)S(=O)(=O)c1cc([N+](=O)[O-])ccc1NNC(=O)Nc1ccc(F)cc1	8.81
CC1(C)CC(=O)c2cn3nc(C(F)(F)F)nc3nc2C1	9.97
Cc1ccc(N=Nc2ccc(N)cc2C)c(S(N)(=O)=O)c1	13.3
NC(=O)COC(=O)c1ccc2c(c1)S(=O)(=O)c1ccccc1C2=O	4.96
CC(C)c1cc(=O)n2[nH]c(SCc3ccccc3Cl)nc2n1	20.2
COCCNC(=O)CCC1CCN(C/C=C/c2ccccc2OC)CC1	4.61
Cc1ccc(CNC(=O)CCc2nnc3ccc(N4CCC5(CC4)OCCO5)nn23)cc1	19.5
O=C(Nc1ccc2oc(-c3cccnc3)nc2c1)c1ccc(Br)o1	7.57
CSc1ccccc1NC(=O)COc1nsnc1N1CCOCC1	14.1
CCN(CC)S(=O)(=O)c1ccc(N2CCCC2)c(C(=O)OCC(=O)N2CCCC2)c1	3.11
Cc1onc(-c2ccccc2Cl)c1C(=O)Nc1ccccc1O	8.58
CCn1cnc2c([N+](=O)[O-])c(NS(=O)(=O)c3ccc(C)cc3)ccc21	7.56
Cl.O=C(NCc1ccccc1)N1CCNCC1	11.1
O=S(=O)(NCc1cc(-c2ccccc2Cl)no1)c1ccccc1	9.21
Cc1ccc(SCC(=O)OCC(=O)N(C)CC(=O)Nc2ccccc2Cl)cc1	9.66
O=C1N(CC(=O)N2CCc3ccccc32)CCN1Cc1ccccc1Cl	8.38
Cc1ccc(S(=O)(=O)Cc2ccc(C(=O)N3CCc4ccccc4C3)o2)cc1	-30.2
COCCN(C(=S)Nc1ccc(OC)cc1)C1CCN(C(C)C)CC1	6.3
O=S(=O)(NC1CCCCC1)c1cccs1	9.05
O=C(NCC1CCCO1)c1cccnc1Nc1ccccc1F (stereo not shown)	5.82
Cc1ccc(S(=O)(=O)N2CCC(NC(=O)OC(C)C)CC2)cc1	16.6
O=C1c2cccc3cccc(c23)C(=O)N1c1ccncc1	-2.52

Structure (SMILES)	hERG current change (%, negative = inhibition) at 1uM [%]
CCN1C(=O)C(CC(=O)Nc2ccc(OC)cc2)N(CCc2ccc(F)cc2)C1=S (stereo not shown)	7.48
CCC(CC)c1nc(C#N)c(NCc2ccccc2)o1	15.6
CCOC(=O)/C(N=Nc1c(C)n(C)n(-c2ccccc2)c1=O)=C(/O)c1ccccc1	11
O=C(COC(=O)C12CC3CC(CC(C3)C1)C2)Nc1ccc([N+](=O)[O-])cc1Br	13.2
CCOC(=O)CNC(c1ccccc1)c1cc(Br)ccc1NC(=O)CCN1CCOCC1 (stereo not shown)	-11
Cc1ccc(CNC(=O)c2ccc(N3CCC4(CC3)CC(c3ccccc3)=NO4)c(NC(=O)c3c(Cl)cccc3Cl)c2)cc1	20.8
CNS(=O)(=O)c1cccc(C(=O)NCC(c2cccs2)N2CCOCC2)c1 (stereo not shown)	5.39
Fc1ccc(/C=N/NC(=S)Nc2ccc(Cl)cc2)cc1F	19.2
Cc1cc(OCC(=O)Nc2cccc(S(=O)(=O)NC3=NCCCCC3)c2)ccc1Cl	6.32
O=S(=O)(NCCNS(=O)(=O)c1cccs1)c1cccs1	0.511
COc1ccc(NC(=S)NNC(=O)OC(C)(C)C)cc1OC	11.6
CN(C1CCCCC1)S(=O)(=O)c1ccc2c(c1)c(=O)c(C(=O)NCCN1CCCC1)cn2C	-3.61
O=C(CN1CCC(n2nnc3cc(C(F)(F)F)ccc32)CC1)N1CCc2ccccc21	-12.7
CCOc1ncccc1C(=O)OCC(=O)Nc1cccc(S(N)(=O)=O)c1	12.6
O=C(NC(=S)Nc1cccnc1)c1cc2ccccc2o1	12.5
CC(Cc1ccccc1)[n+]1cc(/N=C(\N)[O-])on1 (stereo not shown)	12.5
COc1cccc(NC(=S)NN2CCN(C)CC2)c1	10.3
COc1cc(NC(=O)c2ccccc2)c(OC)cc1NC(=O)Cc1ccc(Br)cc1	11.7
COc1ccc(CN2CCN(Cc3cc(=O)oc4cc(C)ccc34)CC2)c(OC)c1OC	-87.6
COc1cccc2cc(C(=O)NC3CC4CCC3C4)oc12 (stereo not shown)	9.59
S=C(Nc1ccccc1)N1CCC(C2CCN(C(=S)Nc3ccccc3)CC2)CC1	13.5
COc1ccc(NC(=O)c2cc(OC)c(OC)c(OC)c2)cn1	4.22

Structure (SMILES)	hERG current change (%, negative = inhibition) at 1uM [%]
Cc1c(C(=O)O)sc2nc3n(c(=O)c12)CCC3	13.1
CCOC(=O)Cn1c(=O)oc2cc(S(=O)(=O)N3CCN(C(=O)c4ccco4)CC3)ccc21	-2.6
CC(=O)c1ccc(OCC(O)Cn2nnc3ccccc32)cc1 (stereo not shown)	9.77
Cc1cc(OCC(=O)N2CCOCC2)c(C(C)C)cc1Cl	1.82
O=c1c2cccnc2[nH]c(=S)n1CCC1=CCCCC1	2.72
COc1cccc2sc(Nc3nc4ccc(NC(C)=O)cc4s3)nc12	22.8
Cc1cc(N2CCOCC2)nc(-c2ccc(Br)cc2)n1	13.9
COc1cccc(/C=C2\CCc3ccccc3C2=O)c1	19.5
CCO/C=C1/C(=O)N(C)C(=O)c2cc(OC)ccc21	16.6
CC(C)n1cc(/C=N/NC(=O)COc2cccc3cccnc23)c2ccccc21	15.7
CC1=CC(C)(C)N(C(=O)c2ccc(F)cc2)c2cc3c(cc21)OCO3	3.64
O=C(Nc1cccnc1)C1(F)C(F)(F)C(F)(F)C(F)(F)C(F)(F)C1(F)F	7.88
CCOC(=O)c1sc(NC(=O)CCSC)nc1C	7.09
O=C(NC1CCCC1)C(c1cc2c(cc1[N+](=O)[O-])OCO2)N1CCCC1 (stereo not shown)	0.223
COc1ccc(Cl)cc1NC(=O)CN1CCCC1.Cl	7.56
Cc1ccc(S(=O)(=O)c2ccc(Cl)cc2)cc1S(=O)(=O)N1CCOCC1	3.5
C=CCn1c(SCc2nc3sc(C(=O)O)c(C)c3c(=O)[nH]2)nnc1-c1ccc(C(C)(C)C)cc1	1.36
CCOC(=O)c1cnc(SCC(=O)c2ccc3c(c2)OCCO3)nc1N	2.65
CN(C)C(=O)c1cc(C(=O)c2ccc(C(F)(F)F)cc2)c[nH]1	12.3
COc1cccc(-c2nn(C)c3sc(C(=O)NCc4ccc(C)o4)cc23)c1	6.13
Cc1[nH][nH]c(=O)c1N=Nc1ccc(Br)c(Cl)c1	14.4
COc1cc(C(=O)NCc2ccc(C)cc2)ccc1OCc1c(C)noc1C	-3.69

Structure (SMILES)	hERG current change (%, negative = inhibition) at 1uM [%]
Cc1ccn2c(C(=O)N/N=C\c3ccccc3[N+](=O)[O-])c(C)nc2c1	-2.47
COc1ccc(NC(=O)C(c2ccccc2)c2ccccc2)c(OC)c1	13.8
Cc1cc(OC(C)C(=O)NCC(O)c2ccccc2)c2c3c(c(=O)oc2c1)CCCC3 (stereo not shown)	11.6
CN(C(=O)c1ccc(Cl)cc1)C1=CCCCC1CCC#N (stereo not shown)	0.644
COc1cccc(-c2cc(C(=O)Nc3cccnc3)no2)c1	8.94
O=C(O)CNC(=O)c1ccc(NC(=O)/C(=C/c2ccccc2)NC(=O)c2ccco2)cc1	1.44
O=C(Nc1nnc(-c2ccco2)o1)c1cccc(N2C(=O)CCC2=O)c1	-1.01
Cc1ccc2[nH]c(=O)c(CN(c3cccc(C)c3C)S(=O)(=O)c3ccccc3)cc2c1	10.2
COc1cc(C(=O)NCc2cn3ccsc3n2)cc(OC)c1OC	19.9
COc1cc(CC(=O)Nc2sccc2C(N)=O)cc(OC)c1OC	8.31
NS(=O)(=O)c1cc(C(=O)OCC(=O)Nc2ccc(Cl)cc2[N+](=O)[O-])ccc1Cl	-6.86
O=C(c1ccccc1)N1CCN=C1c1ccccc1	8.17
CCOC(=O)C1CCN(C(=O)c2ccc(OCC(=O)Nc3ccc(OCC)cc3)c(OC)c2)CC1	0.466
O=C(COc1ccc(Cl)cc1Cl)NC(=O)c1ccccc1	9.53
N#CC(c1ccccc1)N(CCCCl)C(=O)c1ccccc1 (stereo not shown)	6.07
Cc1ccc(Cl)cc1NC(=O)C(NS(=O)(=O)c1cccs1)c1ccccc1 (stereo not shown)	12.3
CCC(=O)NNC(=O)Cc1c(C)n(C(=O)c2ccc(Cl)cc2)c2ccc(OC)cc12	15.9
CC1(c2ccccc2)NC(=O)N(CCN2C(=O)c3ccccc3C2=O)C1=O (stereo not shown)	9.35
C[N+]1(CC2COC(c3ccco3)O2)CCCCC1.[I-] (stereo not shown)	17.4
O=C(Nc1ccc(F)cc1F)c1ccccc1NC(=O)C1CC=CCC1C(=O)O (stereo not shown)	10.7
COc1ccc2c([N+](=O)[O-])c(Cl)[nH]c2c1	18.7
Cc1ccc(C(=O)N2C(=S)C(c3ccc(F)cc3)=NC23CCN(C)CC3)cc1	3.79
